This is one part of the list. The full chains were built here from the parent and the listed change. Values near 0.05 are background.
B1: TEV protease; numbered along this chain (parent)
chain: MGESLFKGPRDYNPISSSICHLTNESDGHTTSLYGIGFGPFIITNKHLFRRNNGTLVVQSLHGVFKVKDTTTLQQHLVDGRDMIIIRMPKDFPPFPQKLKFREPQREERICLVTTNFQTKSMSSMVSDTSCTFPSGDGIFWKHWIQTKDGQCGSPLVSTRDGFIVGIHSASNFTNTNNYFTSVPKNFMELLTNQEAQQWVSGWRLNADSVLWGGHKVFMVKPEEPFQPVKEATQL

Variants of: B1
Assay: raw area under fraction-flipped curve 0-4 h after induction (AUC4h, not background-subtracted), DNA-recorder readout of cleavage of the substrate (dimensionless); higher = more cleavage of the substrate by the protease variant
Conditions: temperature: 34 °C; time window: 0-4 h after rhamnose induction
Experimental: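 In vivo DNA recorder in E. coli TOP10(DE3) ΔrhaA at 34 °C. Each TEVp single-site mutant (parent TEVp 0) is paired with a single-site variant of the 7-mer TEVs (canonical ENLYFQ|S). The substrate sits between flexible linkers in a Bxb1-sfGFP-TEVs-SsrA fusion, so cleavage stabilises Bxb1 and speeds flipping of a recombination array, read by NGS. The value is the raw area under the fraction-flipped curve over 0-4 h after rhamnose induction (AUC4h), with ≥20 reads per time point. It is not background-subtracted; inactive controls average about 0.047.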
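Also: Bxb1 expression induced with 0.2% (w/v) L-rhamnose at OD600 near 0.5, cultures sampled hourly, flipped fraction per protease–substrate barcode pair counted by paired-end Illumina sequencing.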

| Variant | area with substrate ANLYFQS | area with substrate DNLYFQS | area with substrate FNLYFQS | area with substrate GNLYFQS | area with substrate HNLYFQS | area with substrate INLYFQS | area with substrate KNLYFQS | area with substrate LNLYFQS | area with substrate MNLYFQS | area with substrate NNLYFQS | area with substrate PNLYFQS | area with substrate QNLYFQS | area with substrate TNLYFQS | area with substrate VNLYFQS | area with substrate WNLYFQS | area with substrate YNLYFQS | area with substrate SNLYFQS | area with substrate CNLYFQS | area with substrate RNLYFQS |
| --- | --- | --- | --- | --- | --- | --- | --- | --- | --- | --- | --- | --- | --- | --- | --- | --- | --- | --- | --- |
| A196I | 0.105 | 0.0954 | 0.0707 | 0.0668 | 0.0634 | 0.0735 | 0.0579 | 0.0735 | 0.0677 | 0.0719 | 0.0903 | 0.067 | 0.0653 | 0.0724 | 0.0569 | 0.0642 | – | – | – |
| A196Q | 0.0728 | 0.0853 | 0.0708 | 0.0766 | 0.0496 | 0.0604 | 0.0707 | 0.0578 | – | – | – | 0.0608 | 0.0406 | 0.0641 | 0.0746 | 0.0254 | 0.0622 | – | – |
| A196H | 0.0693 | – | 0.0661 | – | 0.0623 | 0.0644 | 0.07 | 0.0616 | 0.0752 | 0.0658 | 0.0592 | – | 0.0599 | 0.0519 | 0.0615 | 0.0617 | 0.0791 | 0.069 | 0.066 |
| A196M | 0.0659 | – | 0.0529 | 0.0736 | 0.0591 | 0.0723 | 0.0661 | 0.0681 | 0.0701 | 0.0833 | 0.073 | – | 0.0671 | 0.0533 | 0.048 | 0.0575 | 0.0629 | 0.0853 | – |
| S182A | 0.0718 | – | – | – | 0.062 | – | – | – | – | 0.0632 | – | – | 0.0632 | – | – | – | 0.078 | 0.0838 | – |
| N175T | 0.051 | 0.061 | – | – | – | – | 0.0798 | – | – | – | 0.0592 | – | 0.0433 | 0.0665 | 0.0594 | 0.0849 | 0.0677 | – | – |
| N175Y | 0.109 | – | – | – | 0.0562 | 0.065 | 0.068 | 0.0562 | 0.0695 | – | – | – | 0.0648 | – | – | 0.0134 | – | 0.059 | 0.0581 |
| N206T | 0.0548 | – | 0.0673 | – | 0.0613 | 0.0785 | 0.0573 | – | – | 0.0725 | 0.0661 | – | 0.0608 | – | 0.0833 | – | 0.065 | 0.0876 | – |
| V220A | 0.0746 | 0.0868 | – | – | 0.0729 | 0.0535 | 0.048 | 0.0754 | – | 0.0498 | 0.0643 | – | 0.0727 | 0.0634 | – | 0.0661 | 0.0692 | – | – |
| G214A | 0.0658 | 0.067 | 0.0642 | 0.0534 | 0.043 | 0.0409 | 0.0606 | – | 0.072 | 0.0905 | – | – | 0.0584 | – | 0.0586 | 0.0527 | 0.0628 | – | 0.0661 |
| K221D | 0.0564 | – | 0.0568 | – | 0.0457 | 0.0594 | 0.079 | 0.0595 | – | – | 0.0581 | – | – | 0.0615 | 0.0854 | 0.0483 | 0.0557 | 0.0625 | 0.0228 |
| Q194P | 0.0719 | – | 0.0693 | – | 0.0736 | 0.0372 | – | – | – | 0.0628 | 0.0656 | – | – | 0.0748 | 0.0343 | – | – | 0.112 | – |
| Q194E | 0.0825 | 0.127 | – | – | 0.0687 | – | 0.0745 | 0.0509 | – | 0.078 | – | – | 0.0587 | – | – | – | – | 0.0265 | – |
| K185I | 0.071 | – | – | 0.0955 | 0.0571 | 0.075 | 0.057 | 0.06 | 0.0605 | 0.0758 | – | – | 0.0699 | 0.061 | 0.0601 | – | 0.0599 | 0.0491 | 0.0651 |
| K185F | 0.0912 | – | 0.0744 | 0.0383 | 0.0633 | 0.0737 | 0.068 | – | 0.0872 | 0.0704 | 0.0665 | 0.0821 | – | – | 0.0661 | 0.0457 | 0.0741 | 0.0669 | 0.062 |
| K185E | 0.0744 | – | – | 0.0664 | 0.0612 | – | – | 0.0435 | – | – | – | 0.0802 | 0.0586 | – | 0.0744 | 0.0681 | 0.0562 | 0.0816 | – |
| H215R | 0.0688 | – | 0.0489 | 0.0731 | 0.0576 | 0.0691 | 0.0531 | 0.0608 | 0.0664 | 0.0606 | 0.0902 | – | – | – | 0.062 | – | – | 0.0616 | – |
| H215E | 0.0674 | – | – | – | 0.0667 | 0.058 | – | 0.06 | 0.0527 | 0.0661 | 0.052 | – | 0.0675 | 0.0743 | – | 0.0656 | 0.0642 | 0.0502 | – |
| F180P | 0.051 | 0.0565 | 0.048 | 0.0593 | 0.0506 | 0.047 | – | – | – | 0.0556 | 0.0501 | – | 0.0596 | 0.0436 | 0.0496 | 0.0424 | – | 0.0513 | – |
| G202M | 0.0646 | – | 0.077 | – | 0.0524 | – | – | – | – | 0.0688 | 0.057 | – | – | 0.0408 | 0.0549 | 0.0602 | 0.0496 | 0.072 | – |
| G202L | 0.0628 | 0.0545 | – | – | 0.0602 | – | 0.0678 | – | – | – | 0.0599 | – | 0.0572 | – | 0.0491 | – | 0.0521 | – | – |
| L211V | 0.0586 | 0.0937 | – | 0.0823 | 0.0346 | 0.0631 | – | – | 0.0833 | – | – | – | 0.0819 | – | 0.0696 | 0.0704 | 0.056 | – | – |
| L211C | 0.0622 | 0.058 | – | – | 0.0492 | – | – | 0.0641 | – | 0.0542 | 0.0691 | – | 0.0699 | 0.0646 | 0.0731 | 0.0541 | 0.0708 | – | – |
| F218L | 0.0675 | – | 0.055 | – | 0.0717 | 0.0385 | 0.0576 | 0.0522 | 0.0575 | 0.05 | 0.0618 | 0.0665 | 0.0568 | – | 0.0598 | 0.0679 | 0.0545 | 0.058 | 0.0537 |
| E195F | 0.0495 | 0.0528 | 0.0558 | – | 0.0646 | 0.0718 | 0.056 | – | 0.0817 | 0.0712 | – | – | – | 0.0514 | 0.0352 | 0.0584 | 0.067 | – | 0.0594 |
| L190G | 0.0642 | 0.0725 | – | 0.0608 | 0.0583 | 0.0739 | 0.0628 | 0.0594 | – | 0.0743 | 0.0576 | – | 0.0579 | 0.08 | – | – | – | – | – |
| L190W | 0.0588 | – | – | 0.0484 | 0.0558 | 0.0583 | – | – | 0.048 | 0.0551 | 0.0569 | – | 0.0598 | 0.0502 | 0.0488 | 0.065 | 0.0569 | 0.0603 | 0.0633 |
| V183Y | 0.0556 | – | 0.0519 | – | 0.0592 | 0.0731 | 0.0696 | 0.0619 | 0.0554 | 0.0627 | 0.0581 | 0.0736 | 0.0552 | – | 0.0278 | – | – | 0.0693 | – |
